PubChem BioAssay (Tox21)
“And” between values parts separate entries of the source, which are not always exact repeats. Equal entries are not always repeated. The shares of active, inactive and inconclusive entries below differ from those in the screen. For part of these data: A potency beside an inconclusive call is a rough fit, not a confirmed value. The source made the active and inactive calls. Unless noted, calls follow the shape of the dose curve; as a rule, active = well fitted curve in the direction sought with a large enough effect in the repeat runs; inconclusive = weak or mixed curves; inactive = no such curve, though single readings can be large; an effect the other way counts as inactive or inconclusive.

Key:
[1] = qHTS assay to identify aromatase inhibitors - cell viability counter screen (AID 743084); conditions: MCF-7 aro ERE viability, CellTiter-Fluor, 24 h; activity change, negative = cytotoxicity: at 70.3 µM (top of the series);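 also: cells stimulated with testosterone during compound exposure; potency is read from the fitted curve at half-maximal effect; nearly all actives have a fitted effect of over 55% in size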
[2] = target: Aryl hydrocarbon receptor (Homo sapiens) (UniProt P35869); assay: qHTS assay to identify small molecule that activate the aryl hydrocarbon receptor (AhR) signaling pathway (AID 743085); also: potency is read from the fitted curve at half-maximal effect; nearly all actives have a fitted effect of over 15% in size
Summary of the method: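 AhR agonist activity is inferred from enhanced light output of a DRE-controlled firefly luciferase reporter in HepG2 cells, measured with ONE-Glo following 24 h treatment at 37C.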

[3] = qHTS assay to identify small molecule that activate the aryl hydrocarbon receptor (AhR) signaling pathway - cell viability counter screen (AID 743086); also: potency is read from the fitted curve at half-maximal effect; nearly all actives have a fitted effect of over 45% in size
Summary of the method: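 Cytotoxicity counter screen: CellTiter-Fluor signal (30 min, 37 C) in 4000 HepG2 cells/well carrying the DRE-luciferase reporter, following 24 h compound exposure at 37 C.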

[4] = target: Peroxisome proliferator-activated receptor gamma (Homo sapiens) (UniProt P37231); assay: qHTS assay to identify small molecule agonists of the peroxisome proliferator-activated receptor gamma (PPARg) signaling pathway (AID 743094; active = well fitted activation curve with a large enough effect in the signal ratio in the repeat runs, not every such curve was filed as active; inconclusive = weak or mixed curves, or effect the other way; inactive = no such curve, though single readings can be large or run the other way; the % refers to the signal ratio; also: potency is read from the fitted curve at half-maximal effect); conditions: HEK293H PPARg-UAS-bla, beta-lactamase FRET ratio, 17 h; activation: at 57 µM (top of the series) unless noted
Summary of the method: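 Stably transfected HEK293H cells (GeneBLAzer PPARg UAS-bla) were incubated with test substances for 17 h at 37C after a 5 h pre-incubation; beta-lactamase activity was then detected by FRET substrate fluorescence.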

[5] = target: Peroxisome proliferator-activated receptor gamma (Homo sapiens) (UniProt P37231); assay: qHTS assay to identify small molecule antagonists of the peroxisome proliferator-activated receptor gamma (PPARg) signaling pathway (AID 743191; calls by dose curve; also: nearly all actives have a fitted effect of over 30% in size; also: potency is read from the fitted curve at half-maximal effect; as to ratio activity, negative = inhibition: % is scaled to controls: 0 for no effect and ±100 for the full control effect); conditions: HEK293H PPARg-UAS-bla, beta-lactamase ratio, antagonist, 17 h; ratio activity, negative = inhibition: at 62.6 µM (top of the series) unless noted
Summary of the method: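 Beta-lactamase reporter under UAS control in HEK293H PPARg-bla cells; compound treatment 17 h at 37C. Read-out: fluorescence intensity after 1 h room-temperature incubation with LiveBLAzer B/G FRET substrate.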

[6] = qHTS assay to identify small molecule antagonists of the peroxisome proliferator-activated receptor gamma (PPARg) signaling pathway - cell viability counter screen (AID 743194); conditions: PPARg-bla HEK293H viability, CellTiter-Glo luminescence, 17 h, co-treated with 50 nM rosiglitazone; activity change, negative = cytotoxicity: at 62.6 µM (top of the series); also: potency is read from the fitted curve at half-maximal effect; nearly all actives have a fitted effect of over 55% in size
Summary of the method: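 Viability was measured as CellTiter-Glo luminescence in GeneBLAzer PPARg UAS-bla HEK293H cells. These cells had been exposed 17 h at 37 C to compounds together with rosiglitazone at 50 nM final, with the beta-lactamase readout taken in the same wells.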

[7] = qHTS assay for small molecule agonists of the antioxidant response element (ARE) signaling pathway (AID 743202; active = well fitted activation curve with a large enough effect in the signal ratio in the repeat runs, not every such curve was filed as active; inconclusive = weak or mixed curves, or effect the other way; inactive = no such curve, though single readings can be large or run the other way; the % refers to the signal ratio; also: potency is read from the fitted curve at half-maximal effect; as to activation: % is scaled to controls: 0 for no effect and ±100 for the full control effect); conditions: HepG2 ARE-bla reporter, beta-lactamase FRET, 16 h; activation: at 73.3 µM (top of the series) unless noted
Summary of the method: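 Quantitative high-throughput format in HepG2 cells bearing an integrated ARE-beta-lactamase reporter. Compound exposure lasted 16 h at 37 C, and fluorescence was read 2 h after adding LiveBLAzer B/G substrate at room temperature.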

[8] = qHTS assay for small molecule activators of the heat shock response signaling pathway (AID 743210; active = well fitted activation curve with a large enough effect in the signal ratio in the repeat runs, with a control signal flat, not every such curve was filed as active; inconclusive = weak or mixed curves; the % refers to the signal ratio; also: potency is read from the fitted curve at half-maximal effect); conditions: HeLa HSE-bla reporter, beta-lactamase ratio, 5 h; activation: at 62.6 µM (top of the series)
Summary of the method: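 HeLa HSE-bla cells, overnight plating; cpd in DMSO 5 h, 37 C; LiveBLAzer B/G FRET substrate 2.5 h RT; fluorescence intensity read.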

[9] = qHTS assay to identify small molecule agonists of the peroxisome proliferator-activated receptor delta (PPARd) signaling pathway - cell viability counter screen (AID 743211); conditions: PPARd-bla HEK293H viability, CellTiter-Glo luminescence, 17 h; activity change, negative = cytotoxicity: at 62.6 µM (top of the series); also: potency is read from the fitted curve at half-maximal effect; nearly all actives have a fitted effect of over 55% in size
Summary of the method: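 qHTS cell viability: PPARd-bla HEK293H; 17 h cpd, 37C; CellTiter-Glo, luminescence at 30 min RT.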

[10] = target: Peroxisome proliferator-activated receptor delta (Homo sapiens) (UniProt Q03181); assay: qHTS assay to identify small molecule agonists of the peroxisome proliferator-activated receptor delta (PPARd) signaling pathway (AID 743212; calls by dose curve; also: potency is read from the fitted curve at half-maximal effect); conditions: HEK293H PPARd-UAS-bla, beta-lactamase FRET ratio, 17 h; activation: at 62.6 µM (top of the series) unless noted
Summary of the method: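 HEK293H PPARd-bla cells; 5 h preincubation 37 C/5% CO2; compound (DMSO) 37 C; LiveBLAzer B/G FRET substrate 2 h RT; fluorescence intensity.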

[11] = qHTS assay to identify small molecule antagonists of the peroxisome proliferator-activated receptor delta (PPARd) signaling pathway - cell viability counter screen (AID 743213); conditions: PPARd-bla HEK293H viability, CellTiter-Glo luminescence, 17 h; viability change, negative = cytotoxic: at 62 µM (top of the series) unless noted; also: potency is read from the fitted curve at half-maximal effect; nearly all actives have a fitted effect of over 50% in size
Summary of the method: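 Cytotoxicity counter screen: CellTiter-Glo luminescence read 30 min after addition, in the same wells as the reporter assay. There, PPARd UAS-bla HEK293H cells (3000/well) were treated 17 h at 37 C with compound and 300 nM L165041.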

[12] = target: Peroxisome proliferator-activated receptor delta (Homo sapiens) (UniProt Q03181); assay: qHTS assay to identify small molecule antagonists of the peroxisome proliferator-activated receptor delta (PPARd) signaling pathway (AID 743215; active = well fitted inhibition curve with a large enough effect in the signal ratio in the repeat runs, not every such curve was filed as active; inconclusive = weak or mixed curves, or effect the other way; inactive = no such curve, though single readings can be large or run the other way; the % refers to the signal ratio;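 also: cells stimulated with agonist L165041 at 300 nM final during compound exposure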; also: potency is read from the fitted curve at half-maximal effect); conditions: HEK293H PPARd-UAS-bla, beta-lactamase FRET ratio, antagonist, 17 h; ratio activity, negative = inhibition: at 62 µM (top of the series) unless noted
Summary of the method: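 Antagonist-mode beta-lactamase reporter screen: HEK293H cells with UAS-bla under PPARd control, stimulated by 300 nM L165041 (final) alongside test compound for 17 h at 37 C, then FRET fluorescence after 2 h substrate incubation.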

[13] = target: Bile acid receptor (Homo sapiens) (UniProt Q96RI1); assay: qHTS assay to identify small molecule antagonists of the farnesoid-X-receptor (FXR) signaling pathway (AID 743217; active = well fitted inhibition curve with a large enough effect in the signal ratio in the repeat runs, not every such curve was filed as active; inconclusive = weak or mixed curves, or effect the other way; inactive = no such curve, though single readings can be large or run the other way; the % refers to the signal ratio; also: % is scaled to controls: 0 for no effect and ±100 for the full control effect); conditions: HEK293T FXR-UAS-bla, beta-lactamase ratio, CDCA-stimulated, 16 h; activity change, negative = inhibition: at 62.6 µM (top of the series) unless noted
Summary of the method: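 Beta-lactamase reporter under UAS control in HEK 293T cells; compound exposure 16 h at 37 °C in the presence of chenodeoxycholic acid (50 uM final); signal from B/G FRET substrate after 2 h at room temperature.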

[14] = target: Bile acid receptor (Homo sapiens) (UniProt Q96RI1); assay: qHTS assay to identify small molecule agonists of the farnesoid-X-receptor (FXR) signaling pathway (AID 743220; active = well fitted activation curve with a large enough effect in the signal ratio in the repeat runs, not every such curve was filed as active; inconclusive = weak or mixed curves, or effect the other way; the % refers to the signal ratio; also: potency is read from the fitted curve at half-maximal effect); conditions: HEK293T FXR-UAS-bla, beta-lactamase FRET ratio, 16 h; activation: at 62.6 µM (top of the series) unless noted
Summary of the method: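 Beta-lactamase reporter under UAS control in GeneBLAzer FXR HEK 293T cells (5000/well) measured with LiveBLAzer FRET substrate after 2 h at room temperature. Compound exposure lasted 16 h at 37C.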

[15] = target: Vitamin D3 receptor (Homo sapiens) (UniProt P11473); assay: qHTS assay to identify small molecule agonists of the vitamin D receptor (VDR) signaling pathway (AID 743222; calls by dose curve; also: % is scaled to controls: 0 for no effect and ±100 for the full control effect); conditions: HEK293T VDR-UAS-bla, beta-lactamase FRET ratio, 16 h; activation: at 63.5 µM (top of the series) unless noted
Summary of the method: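 Agonist activity measured in VDR-bla reporter cells. Exposure 16 h, 37C, 5% CO2; detection by B/G FRET substrate, 2 h RT.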

[16] = target: Vitamin D3 receptor (Homo sapiens) (UniProt P11473); assay: qHTS assay to identify small molecule antagonists of the vitamin D receptor (VDR) signaling pathway (AID 743223; active = well fitted inhibition curve with a large enough effect in the signal ratio in the repeat runs, not every such curve was filed as active; inconclusive = weak or mixed curves, or effect the other way; inactive = no such curve, though single readings can be large or run the other way; the % refers to the signal ratio; also: potency is read from the fitted curve at half-maximal effect); conditions: VDR-UAS-bla HEK293T, beta-lactamase FRET ratio, 16 h; activity change, negative = inhibition: at 61 µM (top of the series) unless noted
Summary of the method: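 Reporter line VDR-bla; stimulus 1alpha,25-(OH)2 vitamin D3, 3 nM final; compound co-addition, 16 h 37C/5% CO2; LiveBLAzer B/G substrate 2 h RT; fluorescence intensity.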

[17] = qHTS assay to identify small molecule agonists of the farnesoid-X-receptor (FXR) signaling pathway - cell viability counter screen (AID 743218); conditions: FXR-bla HEK293T viability, CellTiter-Glo luminescence, 16 h; viability change, negative = cytotoxic: at 62.6 µM (top of the series) unless noted; also: potency is read from the fitted curve at half-maximal effect; nearly all actives have a fitted effect of over 45% in size
Summary of the method: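 In GeneBLAzer FXR-UAS-bla HEK 293T cells, compounds act for 16 h at 37 C. Cell viability is then scored in the reporter wells by CellTiter-Glo, 30 min at RT, luminescence.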

[18] = qHTS assay to identify small molecule antagonists of the farnesoid-X-receptor (FXR) signaling pathway - cell viability counter screen (AID 743221; active = well fitted cell-killing curve with a large enough effect in the repeat runs, not every such curve was filed as active; inconclusive = weak or mixed curves, or effect the other way; inactive = no such curve, though single readings can be large or run the other way; also: potency is read from the fitted curve at half-maximal effect; nearly all actives have a fitted effect of over 50% in size); conditions: FXR-bla HEK293T viability, CellTiter-Glo luminescence, 16 h; activity change, negative = cytotoxicity: at 62.6 µM (top of the series)
Summary of the method: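 After a 5 h settling period, FXR-bla HEK 293T cells receive compound and chenodeoxycholic acid (50 uM final) and incubate 16 h at 37 C; CellTiter-Glo luminescence, read after 30 min at room temperature, reports cell viability.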
Tags tell the direction and shape of the fitted curve or compound fluorescence and quenching.

Chain of UniProt Q03181 (Q03181 whole entry, looked up): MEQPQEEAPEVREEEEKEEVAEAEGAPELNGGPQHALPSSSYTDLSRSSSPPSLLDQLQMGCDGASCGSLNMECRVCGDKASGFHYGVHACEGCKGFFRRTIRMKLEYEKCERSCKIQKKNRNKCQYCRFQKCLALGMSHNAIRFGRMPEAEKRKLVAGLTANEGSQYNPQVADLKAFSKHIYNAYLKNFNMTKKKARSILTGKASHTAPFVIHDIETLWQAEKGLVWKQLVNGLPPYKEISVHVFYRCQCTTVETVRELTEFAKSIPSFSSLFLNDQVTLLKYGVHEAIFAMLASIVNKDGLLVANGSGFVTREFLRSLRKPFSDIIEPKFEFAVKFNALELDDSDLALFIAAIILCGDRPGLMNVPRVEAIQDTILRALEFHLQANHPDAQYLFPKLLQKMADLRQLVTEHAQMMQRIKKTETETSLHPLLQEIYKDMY
Chain of UniProt P37231 (P37231 whole entry, looked up): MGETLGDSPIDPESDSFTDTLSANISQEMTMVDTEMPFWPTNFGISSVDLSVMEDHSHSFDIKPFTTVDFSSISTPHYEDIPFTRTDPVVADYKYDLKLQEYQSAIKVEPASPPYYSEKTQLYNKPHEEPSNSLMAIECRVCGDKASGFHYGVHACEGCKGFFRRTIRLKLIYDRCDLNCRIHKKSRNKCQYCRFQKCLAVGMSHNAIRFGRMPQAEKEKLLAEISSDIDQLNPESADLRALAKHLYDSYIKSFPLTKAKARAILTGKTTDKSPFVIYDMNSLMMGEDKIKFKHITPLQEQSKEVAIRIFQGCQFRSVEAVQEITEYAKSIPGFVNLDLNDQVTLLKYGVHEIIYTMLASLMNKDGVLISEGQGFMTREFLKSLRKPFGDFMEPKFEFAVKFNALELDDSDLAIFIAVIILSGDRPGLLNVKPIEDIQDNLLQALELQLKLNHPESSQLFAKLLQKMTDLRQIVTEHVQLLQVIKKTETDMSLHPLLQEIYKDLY
Chain of UniProt P11473 (P11473 whole entry, looked up): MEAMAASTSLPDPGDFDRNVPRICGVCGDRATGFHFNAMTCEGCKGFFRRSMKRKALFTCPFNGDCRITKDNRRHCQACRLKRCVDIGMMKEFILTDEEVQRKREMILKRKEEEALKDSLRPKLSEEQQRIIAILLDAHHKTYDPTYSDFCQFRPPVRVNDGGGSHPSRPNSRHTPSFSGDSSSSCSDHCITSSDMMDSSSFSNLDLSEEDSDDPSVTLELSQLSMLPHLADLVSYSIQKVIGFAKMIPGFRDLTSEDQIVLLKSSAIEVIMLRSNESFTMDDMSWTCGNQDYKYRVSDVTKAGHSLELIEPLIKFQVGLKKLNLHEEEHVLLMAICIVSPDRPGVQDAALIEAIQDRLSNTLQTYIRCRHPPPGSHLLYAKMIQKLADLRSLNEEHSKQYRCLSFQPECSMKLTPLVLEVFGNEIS
Chain of UniProt Q96RI1 (Q96RI1 whole entry, looked up): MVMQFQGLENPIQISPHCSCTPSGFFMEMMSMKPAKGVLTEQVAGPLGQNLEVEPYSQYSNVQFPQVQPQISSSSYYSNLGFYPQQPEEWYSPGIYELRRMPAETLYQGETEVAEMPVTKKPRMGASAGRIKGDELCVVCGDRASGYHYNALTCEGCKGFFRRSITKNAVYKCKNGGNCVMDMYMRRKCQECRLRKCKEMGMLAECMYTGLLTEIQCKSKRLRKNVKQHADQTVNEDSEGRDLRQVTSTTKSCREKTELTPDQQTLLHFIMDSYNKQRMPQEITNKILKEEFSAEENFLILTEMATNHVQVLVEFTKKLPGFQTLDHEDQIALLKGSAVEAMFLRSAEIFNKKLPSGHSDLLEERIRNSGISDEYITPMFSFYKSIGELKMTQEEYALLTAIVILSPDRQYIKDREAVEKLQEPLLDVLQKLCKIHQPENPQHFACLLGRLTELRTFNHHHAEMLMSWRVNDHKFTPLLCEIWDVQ
Chain of UniProt P35869 (P35869 whole entry, looked up): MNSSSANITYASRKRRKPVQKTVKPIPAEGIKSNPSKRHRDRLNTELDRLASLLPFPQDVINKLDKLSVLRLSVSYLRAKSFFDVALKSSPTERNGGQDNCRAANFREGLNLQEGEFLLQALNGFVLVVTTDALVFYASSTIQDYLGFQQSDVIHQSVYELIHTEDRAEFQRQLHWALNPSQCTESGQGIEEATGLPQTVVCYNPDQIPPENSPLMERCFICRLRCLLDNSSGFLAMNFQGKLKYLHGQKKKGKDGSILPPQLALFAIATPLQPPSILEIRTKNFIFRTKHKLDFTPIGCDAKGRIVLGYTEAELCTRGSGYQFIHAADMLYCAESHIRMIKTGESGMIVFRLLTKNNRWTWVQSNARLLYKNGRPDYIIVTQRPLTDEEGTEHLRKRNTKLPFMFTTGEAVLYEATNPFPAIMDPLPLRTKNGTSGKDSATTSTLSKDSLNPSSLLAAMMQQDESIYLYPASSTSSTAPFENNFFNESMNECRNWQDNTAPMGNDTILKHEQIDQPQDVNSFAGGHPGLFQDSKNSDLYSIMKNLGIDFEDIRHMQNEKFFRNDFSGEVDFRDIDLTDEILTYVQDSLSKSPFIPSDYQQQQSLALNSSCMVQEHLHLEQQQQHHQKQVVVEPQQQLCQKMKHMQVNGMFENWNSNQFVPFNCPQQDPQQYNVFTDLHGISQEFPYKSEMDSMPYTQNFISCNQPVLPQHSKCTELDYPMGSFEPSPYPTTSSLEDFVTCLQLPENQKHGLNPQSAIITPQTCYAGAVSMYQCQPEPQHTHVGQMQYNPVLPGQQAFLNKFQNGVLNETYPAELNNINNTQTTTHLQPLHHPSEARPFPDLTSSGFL

In the case of `Cc1ccc(O)c(N)c1`, the Potency [1] is reported as inconclusive: 68.7 µM [cytotoxic, single point], the Potency [2] is reported as active: 34.4 µM and the Potency [3] is reported as inconclusive: 54.5 µM [falling, partial curve, poor fit]. The Potency [4] was inconclusive: 55 µM [activator, single point], the Potency [5] was inconclusive: 21.9 µM [activator, single point] and the Potency [6] was inconclusive: 55 µM [cytotoxic, single point]. The Potency [7] was inconclusive: 2.44 µM [falling, partial curve, poor fit], the Potency [8] was inconclusive: 55 µM [falling, partial curve, poor fit] and the Potency [9] was inconclusive: 21.9 µM [cytotoxic]. The Potency [10] was inconclusive: 21.9 µM, the Potency [11] was inconclusive: 15.5 µM [cytotoxic, full curve] and the Potency [12] was inconclusive: 61.7 µM [inhibitor, single point]. For the same molecule, the Potency [13] was “inactive”, the Potency [14] was inconclusive: 49 µM [activator, partial curve] and the activation [15] was inconclusive: -24.6%. For the same molecule, the Potency [16] was inconclusive: 43.7 µM [inhibitor, partial curve, poor fit].

In the case of `COC(=O)[C@H]1[C@H]2C[C@@H]3c4[nH]c5cc(OC)ccc5c4CCN3C[C@H]2C[C@@H](OC(=O)c2cc(OC)c(OC)c(OC)c2)[C@@H]1OC`, the Potency [1] is reported as inconclusive: 62.9 µM [cytotoxic, single point], the Potency [2] is reported as inconclusive: 29.8 µM [activator] and the Potency [3] is reported as inconclusive: 16.8 µM [falling, partial curve] and inconclusive: 35.3 µM [falling, partial curve]. The Potency [5] was inconclusive: 4.36 µM [fluorescent, full curve] and inconclusive: 17.9 µM [partial curve], the ratio activity, negative = inhibition [5] was inconclusive: -33.8% and the Potency [6] was inconclusive: 4.36 µM [cytotoxic, full curve, poor fit]. The Potency [7] was inconclusive: 44.5 µM [rising, partial curve, poor fit], the activation [7] was inconclusive: 3.43% and inconclusive: 18.1% and the Potency [9] was inconclusive: 17.3 µM [cytotoxic, partial curve] and active: 17.9 µM and inconclusive: 5.96 µM [cytotoxic, full curve]. The Potency [11] was inconclusive: 19.5 µM [cytotoxic, partial curve, poor fit] and active: 17.9 µM and inconclusive: 26.6 µM [cytotoxic, single point], the Potency [12] was inconclusive: 54.8 µM [activator, single point] and the ratio activity, negative = inhibition [12] was inconclusive: -17.1%. For the same molecule, the Potency [17] was inconclusive: 21.8 µM [cytotoxic, single point] and active: 22.5 µM and inconclusive: 29.8 µM [cytotoxic] and the Potency [18] was inconclusive: 44.9 µM [falling, partial curve].
